# Measurements taken from the supplement of paper PMC11417369.
# ± gives the standard deviation of the averaged measurements. The list shows a part of the results.
# System: PfAP2-G AP2 domain (GST-tagged)
# Experiment: gcPBM binding intensity (ln(normalized median fluorescence intensity)); higher = stronger DNA binding
# How it was run: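 Binding intensity is defined as the maximum Masliner-normalised natural-log median intensity across replicate spots for either probe orientation. It was measured on an Agilent 4 × 180k array of primer-extended double-stranded 36-bp intergenic genomic probes and negative controls, to which GST-tagged P. falciparum DNA-binding domains made in E. coli were applied for 1 h in 1× PBS with 1% milk, 0.2 mg/ml BSA, 0.5% salmon testes DNA and 0.03% Triton X-100. Detection was by Alexa488 anti-GST antibody and scanning at 488 nm.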
row,Sequence,gcPBM binding intensity (ln)
1,ATTATTACATTTTTATGTACATATCAAATTTATACA [XGTACX_site7332],11.4 ± 0.82
2,TTAACTTAAGGAGAGTGTACAAATAATAAAATATCT [XGTACX_site4118],10.9 ± 0.52
3,TATAAATTAAAATGTGTGCACTAAATTGAAATAGAA,10.5 ± 0.3
4,ATATATATATATAATAGTACATATATTTTTATTGGT [XGTACX_site711],10.9 ± 0.57
5,ATATTTTTTACAAATTGTACATTTTTACAATTATTA [XGTACX_site7496],10.6 ± 0.45
6,TAACCTAAAATAACTACACACACATAAAAAAAAAAA [CACACA_site8807],9.99 ± 0.28
7,TCACTTAATATTTAATGTACATAAGGTTCTTGTGCC [XGTACX_site1822],11.1 ± 0.53
8,GGAAAATCTTTATAATGTACATTATGATTATATAAT [XGTACX_site6256],10.8 ± 0.39
9,AAATATAAAGTGCACACACACAAAAAAAGAAAAAAA [CACACA_site6452],10.5 ± 0.47
10,GTTTTCATCCAAAAAAGTACATTTATTTTTATACGA [XGTACX_site1039],11.3 ± 0.9
11,GTAGTGGTTGAATATACACACATATATAAATAAATA [CACACA_site7282],10.2 ± 0.22
12,ATGTATGAATTACATAGTACATAAGAAAAAATGAAG [XGTACX_site5942],10.9 ± 0.44
13,TTTGTGTGTACGCGTGTGCACATTTTTTTTTTTTTT,11.7 ± 0.92
14,TAAATGTCTTCAATGAAGTGGAAATGCTGTTATATA [CACACA_negctrl_site1155],9.875 ± 0.021
15,TTATTTTTTTTAAATTGTACAAGGAACAGTGAAAAA [XGTACX_site4380],11.3 ± 0.81
16,TTCTATTCAAATGCAAAATTATTAAATAAAAAATAA [GTGCAC_negctrl_site708],9.71 ± 0.11
17,TATATAACCTATAGCACACATATATAATATATATTA [CACACA_site1834],9.945 ± 0.035
18,CACCCACACCAACACACACACATATATATATATATA [CACACA_site362],10.3 ± 0.57
19,AAATAAATTGATTCAACACACACATATGTAGGAAGT [CACACA_site9068],10.19 ± 0.021

row,Sequence,gcPBM binding intensity (ln)
1,AATTTTTTTTGTCTCTGTACTTATAAAATATATATG [XGTACX_site4742],11.5 ± 1
2,TTTTTTTTTTTCAAGCGTACAAAAAATATATTTAAA [XGTACX_site5327],11.3 ± 0.96
3,GGAAAATATGTTTGTGTGCACAGCTAGCTATTTGTA [GTGCAC_site9637],10.18 ± 0.014
4,AAAAAAAATTTTAATTGTACAAAAAAAAAAAATATA [XGTACX_site2259],10.9 ± 0.49
5,TATATATGGGTAACCTTTTTTTTTTTTTTTCGAACA [CACACA_negctrl_site1303],10.2 ± 0.18
6,ATTCATAATTTATTATGTACATATATATAATATATT [XGTACX_site1711],11 ± 0.6
7,AAATAACAAATTTTTAAAATGTATATATATATATAT [TGCATGCA_negctrl_site219],9.98 ± 0.52
8,AAGGATATAACATACACACACACACCCATATATATA [CACACA_site4142],10.06 ± 0.035
9,AAAGAAATTATTTGTTGTACATATGTTATTTTTTTT [XGTACX_site7570],11.2 ± 0.64
10,TGCAATTTAATATGAGTGCATATATTGAGAAAATAC,10.4 ± 0.38
11,TAAAACCTTTAAAATACATGCAGCATATATAAGTAA [TGCATGCA_site181],9.63 ± 0.11
12,ATATCATGTTAAGATTGTACATATATATAATATATA [XGTACX_site7626],10.9 ± 0.57
13,AATAAATTGGTATGTTGTACAAAGTAACCATCGATT [XGTACX_site2823],11.1 ± 0.59
14,ATTGTAAGTAGACACACACACATATAGATGTATATA [CACACA_site6463],10.065 ± 0.007
15,TATTTTTTTAATAACTGTACTTTTTTGTCAAATGGA [XGTACX_site4179],11.7 ± 1.2
16,TTTATTTATTATTATGTACACACTATATTAAAACAT [CACACA_site700],11.4 ± 0.87
17,TTATAATAAATATTCATATGTTCAAATATATATATA [CACACA_negctrl_site624],9.69 ± 0.042
18,AAATATATTTCTTTTTTTCTTATTATTAATTTGCTT [CACACA_negctrl_site1483],9.5 ± 0.28
19,TATAGATTTATATACACATGCATTTTGGTAAAGAAA [TGCATGCA_site953],10.1 ± 0.19

row,Sequence,gcPBM binding intensity (ln)
1,GGCGTATGTGTATATACACACCCACGTATATATATA [CACACA_site9046],10.3 ± 0.22
2,TGTTGTTTTATGTTGTATTGTAATATATTATATTAT [XGTACX_negctrl_site46],10.3 ± 0.22
3,ATATATAACGGGCACACACACATTTACGTATGAATA [CACACA_site1833],10.7 ± 0.43
4,TTAAAATTATAATACGTACACACCTTATCTTTTTGG [CACACA_site278],11.5 ± 0.86
5,TATAAAATGTAATCTGAACACACATATTTTTTTAAT [CACACA_site8521],9.85 ± 0.042
6,ATCATATATTATTTATGTACTTATTTATAATAATAT [XGTACX_site8257],11.4 ± 0.91
7,TTAGGATTGAAGAGTTGTACATACCTCTTATTTGTT [XGTACX_site1376],11 ± 0.64
8,CGTATTTTTGGACATGCATGTACAAATAATCTTATG [TGCATGCA_site973],11.1 ± 0.6
9,AAATTTGGCAAACACACACACACACCCACAGAGACA [CACACA_site4490],10.5 ± 0.54
10,AAACGTGTGTATAATAGTACATAATTATAACGTAAT [XGTACX_site421],11 ± 0.71
11,ATATATGGAGCTTATACACACTTTTATATTTTAACA [CACACA_site7757],10.06 ± 0.071
12,TTGGGCATAATGTCATGTACACAAATAATTCTTTAT [XGTACX_site861],11.5 ± 1
13,TAAGTTTTGTTCTTTTGTACATATAAGTATAGATCG [XGTACX_site4735],11 ± 0.61
14,AAAAAAATAATGTACACACACATATAGGTTTATATA [CACACA_site192],11.3 ± 0.86
15,AATGTTTTTGTGAGATGTATAAATTTTATTTTATTT [XGTACX_negctrl_site413],9.82 ± 0.23
16,TATAGTTTCATTCTTTGTACATATATATTATTATTA [XGTACX_site8527],10.9 ± 0.49
17,TATAATGATGATGATAGTACGTATGAGTAAGAAAAA [XGTACX_site31],11.1 ± 0.42
18,ATAAAAATATTTATTACACACATAAGCAAAAAAAAA [CACACA_site3484],10.09 ± 0.035
19,TATTTTTATTTTTAAACCATATATATATATATATAT [CACACA_negctrl_site1560],10.1 ± 0.42
